# From ChEMBL document CHEMBL5606458, “ASAP - ZIKV NS2B-NS3 protease fluorescence single point” (2024)
# The campaign covered roughly 2,700 compounds. About 160 (5.9%) showed an effect of 50% or more. Some of the results follow.
# Molecular target: Nonstructural protein 3 (Zika virus) (UniProt A0A024AXB9)
# [1] = PRVABC59, Concentration 50.0 uM, Number of replicates 1.0
# [2] = PRVABC59, Concentration 15.0 uM, Number of replicates 1.0
# [3] = PRVABC59, Concentration 10.0 uM, Number of replicates 1.0
# Sequence of UniProt A0A024AXB9 (A0A024AXB9 as listed by the source): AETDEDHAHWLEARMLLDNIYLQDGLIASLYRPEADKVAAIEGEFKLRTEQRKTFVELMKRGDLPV
smiles,measurement,setting,value
Cc1cc(CO)c2cccc(Cc3ccccc3NC(=O)C(=O)c3ccco3)c2n1,inhibition,"PRVABC59, Concentration 49.95 uM, Number of replicates 2.0, Standard deviation 1.1299050836597035 %",-5.88%
same,inhibition,"PRVABC59, Concentration 99.9 uM, Number of replicates 2.0, Standard deviation 1.5981540207314013 %",1.55%
Cc1cc(N)c2cc(Cl)cc(Cl)c2n1,inhibition,"PRVABC59, Concentration 99.9 uM, Number of replicates 2.0, Standard deviation 12.824277322413067 %",-8.83%
Cc1cc(CO)c2cccc(Cc3ccccc3NC(=O)CNC3CC3)c2n1,inhibition,"PRVABC59, Concentration 49.95 uM, Number of replicates 2.0, Standard deviation 1.7355748528989599 %",6.05%
same,inhibition,"PRVABC59, Concentration 99.9 uM, Number of replicates 2.0, Standard deviation 0.6769255915552903 %",21.4%
CN(Cc1ccccc1Br)C(=O)C1CCN(c2ccc(C=O)cc2)CC1,inhibition,[1],24.1%
COc1ccccc1CN(CCCO)C(=O)C1CCN(c2ccc(C=O)cc2)CC1,inhibition,[1],23.9%
O=Cc1ccc(N2CCC(C(=O)N(CC3CC3)C[C@H]3CCCO3)CC2)cc1,inhibition,[1],26.6%
CNC(=O)C[C@@H](C)NS(=O)(=O)c1ccc(Oc2ccccc2Cl)cc1,inhibition,"PRVABC59, Concentration 49.5 uM, Number of replicates 2.0, Standard deviation 2.0401331432276226 %",-1.18%
same,inhibition,"PRVABC59, Concentration 99.01 uM, Number of replicates 2.0, Standard deviation 0.5602004425134 %",1.08%
same,inhibition,"PRVABC59, Concentration 198.0 uM, Number of replicates 2.0, Standard deviation 2.0129592787515875 %",4.53%
COc1cc(Cl)nc(NC(=O)c2cc(Cl)ccc2NS(=O)(=O)c2ccc(Oc3ccccc3Cl)cc2)n1,inhibition,[2],23.2%
C[C@H](NC(=O)C1CCN(c2ccc(C=O)cc2)CC1)c1ccccc1-n1cccn1,inhibition,[3],21.9%
Cc1ccc(CNC(=O)C2CCN(C(=O)c3cc(Cl)ccc3NS(=O)(=O)c3ccc(Oc4ccccc4Cl)cc3)CC2)cc1,inhibition,[2],17.7%
Cn1cc(CNC(=O)c2ccccc2-c2ccccn2)cn1,inhibition,"PRVABC59, Concentration 49.5 uM, Number of replicates 2.0, Standard deviation 2.966453080291244 %",-0.41%
same,inhibition,"PRVABC59, Concentration 99.01 uM, Number of replicates 2.0, Standard deviation 3.2933350179161565 %",0.283%
same,inhibition,"PRVABC59, Concentration 198.0 uM, Number of replicates 2.0, Standard deviation 2.8479582272272292 %",0.806%
CCOc1ccccc1CCNC(=O)c1cc(Cl)ccc1NS(=O)(=O)c1ccc(Oc2ccccc2Cl)cc1,inhibition,[2],9.83%
Cn1ccc(CN2CC[C@H](c3c[nH]c4ccccc34)C2)cc1=O,inhibition,"PRVABC59, Concentration 49.5 uM, Number of replicates 2.0, Standard deviation 0.9869168424646743 %",2.74%
same,inhibition,"PRVABC59, Concentration 99.01 uM, Number of replicates 2.0, Standard deviation 1.3893738957347146 %",5.37%
same,inhibition,"PRVABC59, Concentration 198.0 uM, Number of replicates 2.0, Standard deviation 1.456023236095902 %",9.72%
O=C(NCCc1ccc(C(F)(F)F)cc1)c1cc(Cl)ccc1NS(=O)(=O)c1ccc(Oc2ccccc2Cl)cc1,inhibition,[2],30.1%
O=Cc1ccc(N2CCC(C(=O)Nc3ccc(Oc4ccccc4Cl)cc3)CC2)cc1,inhibition,[1],11.4%
CCN(CC)C1CCN(C(=O)C2CCN(c3ccc(C=O)cc3)CC2)CC1,inhibition,[1],24.4%
COc1cc(COc2cncnc2)nc(N2CCNCC2)n1,inhibition,"PRVABC59, Concentration 49.5 uM, Number of replicates 2.0, Standard deviation 1.9988225514114575 %",2.77%
same,inhibition,"PRVABC59, Concentration 99.01 uM, Number of replicates 2.0, Standard deviation 1.7792629273662002 %",7.32%
same,inhibition,"PRVABC59, Concentration 198.0 uM, Number of replicates 2.0, Standard deviation 2.2100977909134136 %",16.6%
O=Cc1ccc(N2CCC(C(=O)NCCOc3ccc(F)cc3)CC2)cc1,inhibition,[1],24.6%
Cc1c(C(=O)N2CCC(n3cc(CO)nn3)CC2)[nH]c2cc(Cl)cc(Cl)c12,inhibition,"PRVABC59, Concentration 49.5 uM, Number of replicates 2.0, Standard deviation 1.4208906347015848 %",4.02%
same,inhibition,"PRVABC59, Concentration 99.01 uM, Number of replicates 2.0, Standard deviation 0.494827603753062 %",9.8%
same,inhibition,"PRVABC59, Concentration 198.0 uM, Number of replicates 2.0, Standard deviation 0.23449629857012413 %",15.6%
Cc1c(NC(=O)c2cc(Cl)ccc2NS(=O)(=O)c2ccc(Oc3ccccc3Cl)cc2)c(=O)n(-c2ccccc2)n1C,inhibition,[2],25.5%
CC(C)(O)CN(Cc1ccccc1)C(=O)c1cc(Cl)ccc1NS(=O)(=O)c1ccc(Oc2ccccc2Cl)cc1,inhibition,[2],22.2%
O=C(Nc1ccc(F)cc1I)c1cc(Cl)ccc1NS(=O)(=O)c1ccc(Oc2ccccc2Cl)cc1,inhibition,[2],26.2%
O=C(NC1CCN(C(=O)NC2CCCCC2)CC1)c1cc(Cl)ccc1NS(=O)(=O)c1ccc(Oc2ccccc2Cl)cc1,inhibition,[2],12.7%
Cc1cc(N)cc(CNC(=O)Cc2cccc3c(CO)cc(C)nc23)c1,inhibition,"PRVABC59, Concentration 49.95 uM, Number of replicates 2.0, Standard deviation 1.6254724488978287 %",7.61%
same,inhibition,"PRVABC59, Concentration 99.9 uM, Number of replicates 2.0, Standard deviation 2.5640510708053585 %",31.2%
Cc1ccc2[nH]cc(CCNC(=O)C3CCN(c4ccc(C=O)cc4)CC3)c2c1,inhibition,[1],12.9%
CNC(=O)c1cc(Cl)ccc1N(C)S(=O)(=O)c1ccc(Oc2ccccc2Cl)cc1,inhibition,"PRVABC59, Concentration 49.5 uM, Number of replicates 2.0, Standard deviation 2.1633243985477817 %",5.01%
same,inhibition,"PRVABC59, Concentration 99.01 uM, Number of replicates 2.0, Standard deviation 2.204675683146184 %",6.67%
same,inhibition,"PRVABC59, Concentration 198.0 uM, Number of replicates 2.0, Standard deviation 3.6933219286886705 %",9.59%
O=Cc1ccc(N2CCC(C(=O)N[C@H]3CC(=O)N(c4ccccc4Cl)C3)CC2)cc1,inhibition,[1],26.5%
CC(C)Nc1nc2ccc(C(=O)Nc3ccc(-c4cc[nH]c4)cc3)cc2[nH]1,inhibition,"PRVABC59, Concentration 49.5 uM, Number of replicates 2.0, Standard deviation 1.4042524076086362 %",8.43%
same,inhibition,"PRVABC59, Concentration 99.01 uM, Number of replicates 2.0, Standard deviation 2.5882696614840826 %",11.3%
Cn1cc(NC(=O)c2ccccc2C(F)(F)F)c(-c2ccc(O)cc2)n1,inhibition,"PRVABC59, Concentration 49.5 uM, Number of replicates 2.0, Standard deviation 1.758470706884018 %",-3.57%
same,inhibition,"PRVABC59, Concentration 99.01 uM, Number of replicates 2.0, Standard deviation 0.898985703829002 %",-1.76%
same,inhibition,"PRVABC59, Concentration 198.0 uM, Number of replicates 2.0, Standard deviation 1.9123879130233277 %",-1.31%
CC(C)c1ccc2c(c1)CC[C@H]1[C@](C)(CNC(=O)c3cc(Cl)ccc3NS(=O)(=O)c3ccc(Oc4ccccc4Cl)cc3)CCC[C@]21C,inhibition,[2],27.8%
CC(C)CN1CCN(C(=O)c2cc(Cl)ccc2NS(=O)(=O)c2ccc(Oc3ccccc3Cl)cc2)[C@@H](C)C1=O,inhibition,[2],1.19%
O=Cc1ccc(N2CCC(C(=O)N[C@H](c3ccccc3)c3ccco3)CC2)cc1,inhibition,[3],12.4%
CN(Cc1nc2ccsc2c(=O)[nH]1)C(=O)C1CCN(c2ccc(C=O)cc2)CC1,inhibition,[1],20.6%
COc1cc(Br)ccc1NC(=O)c1cc(Cl)ccc1NS(=O)(=O)c1ccc(Oc2ccccc2Cl)cc1,inhibition,[2],56.4%
Cc1cc(C)c(CNC(=O)c2cc(Cl)ccc2NS(=O)(=O)c2ccc(Oc3ccccc3Cl)cc2)c(=O)[nH]1,inhibition,[2],15.9%
Cc1cc(CO)c2cccc(Cc3cccc(C(=O)N[C@H]4C[C@@H](O)C4)c3)c2n1,inhibition,"PRVABC59, Concentration 49.95 uM, Number of replicates 2.0, Standard deviation 0.15730350258545148 %",-6.02%
same,inhibition,"PRVABC59, Concentration 99.9 uM, Number of replicates 2.0, Standard deviation 1.5625510183608542 %",-0.827%
CN1CCN(Cc2cccc(CNC(=O)c3cc(Cl)ccc3NS(=O)(=O)c3ccc(Oc4ccccc4Cl)cc3)c2)CC1,inhibition,[2],-2.59%
Cc1nc(NC(=O)c2cc(Cl)ccc2NS(=O)(=O)c2ccc(Oc3ccccc3Cl)cc2)ccc1Br,inhibition,[2],42.3%
O=C(c1cc(Cl)ccc1NS(=O)(=O)c1ccc(Oc2ccccc2Cl)cc1)N(Cc1c(F)cccc1Cl)C1CC1,inhibition,[2],18.6%
O=Cc1ccc(N2CCC(C(=O)NCc3cc(F)cc(Cl)c3)CC2)cc1,inhibition,[3],5.44%
CCn1c(CNC(=O)c2ccc(O)c(NC(=O)c3ccncc3F)c2C)n[nH]c1=O,inhibition,"PRVABC59, Concentration 49.5 uM, Number of replicates 2.0, Standard deviation 0.8304284599294235 %",-2.63%
same,inhibition,"PRVABC59, Concentration 99.01 uM, Number of replicates 2.0, Standard deviation 0.5414958818785077 %",-0.777%
same,inhibition,"PRVABC59, Concentration 198.0 uM, Number of replicates 2.0, Standard deviation 0.23639933414751227 %",0.661%
Cc1cc(NC(=O)c2cc(Cl)ccc2NS(=O)(=O)c2ccc(Oc3ccccc3Cl)cc2)c(F)cc1Br,inhibition,[2],31.3%
COc1cc(-c2ccccc2C(=O)Nc2cnn(C)c2)ccc1O,inhibition,"PRVABC59, Concentration 49.5 uM, Number of replicates 2.0, Standard deviation 0.23383160062225883 %",-0.446%
same,inhibition,"PRVABC59, Concentration 99.01 uM, Number of replicates 2.0, Standard deviation 1.185346396890086 %",0.346%
same,inhibition,"PRVABC59, Concentration 198.0 uM, Number of replicates 2.0, Standard deviation 1.4497559575754835 %",-0.045%
